Measurements reported in PubChem BioAssay AID1030 (National Center for Advancing Translational Sciences (NCATS), 2008).
The whole screen tested about 220,000 compounds, of which about 16,000 (7.3%) were called active. Inconclusive results, whose numbers are uncertain, are shown with a selection of clear calls. Calls come from the whole dose curve; as a rule, active = well fitted inhibition curve with a large enough effect (not every such curve was filed as active); inconclusive = small, poorly fitted or top-dose-only effect, or another doubt; inactive = no such curve, though single readings can be large or run the other way. Potencies of inconclusive entries are left out as doubtful fits.

The compounds below were run against Aldehyde dehydrogenase 1A1 (Homo sapiens) (UniProt P00352) (assay: qHTS Assay for Inhibitors of Aldehyde Dehydrogenase 1 (ALDH1A1)). Conditions: Purified ALDH1A1, NADH fluorescence, propionaldehyde substrate; series mostly up to 75.3 µM; activity, negative = inhibition: at the top concentration.
Potency is the fitted concentration of half-maximal effect; tags give direction and shape of the fitted curve.
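Throughout, for activity, negative = inhibition: plate controls were no enzyme wells and a reference inhibitor.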

UniProt P00352, sequence (P00352 whole entry, looked up): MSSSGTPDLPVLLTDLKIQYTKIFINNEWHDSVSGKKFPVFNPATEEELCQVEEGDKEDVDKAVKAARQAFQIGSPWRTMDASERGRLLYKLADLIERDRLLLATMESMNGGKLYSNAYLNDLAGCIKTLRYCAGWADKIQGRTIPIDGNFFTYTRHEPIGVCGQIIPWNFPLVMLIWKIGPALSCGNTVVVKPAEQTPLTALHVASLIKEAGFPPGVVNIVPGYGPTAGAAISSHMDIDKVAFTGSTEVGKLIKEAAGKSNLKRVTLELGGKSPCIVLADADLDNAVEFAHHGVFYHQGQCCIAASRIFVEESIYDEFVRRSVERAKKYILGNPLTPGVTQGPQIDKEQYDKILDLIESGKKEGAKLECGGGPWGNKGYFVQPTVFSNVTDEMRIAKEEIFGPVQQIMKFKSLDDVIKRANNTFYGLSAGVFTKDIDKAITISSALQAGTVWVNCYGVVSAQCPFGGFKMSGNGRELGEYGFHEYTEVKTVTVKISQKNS

Compound | Potency | activity, negative = inhibition
COC(=O)[C@@]1(Cc2ccc(F)cc2)[C@H]2c3cc(C(=O)N(C)C)n(Cc4ccc(OC(F)(F)F)cc4)c3C[C@H]2CN1C(=O)c1ccccc1 | inactive | –
COc1cccc(Cn2c(=O)cnc3cnc(N4CCN(C)CC4)nc32)c1 | inconclusive [inhibitor, partial curve] | –
C[C@@H]1C(c2ccccc2)=NN(c2ccccc2)[C@H]1C(=O)N1CCOC1=O | inconclusive [inhibitor, single point] | –
COc1ccc(C(=O)NN2C(=O)C3C4C=CC(O4)C3C2=O)cc1 (stereo not given) | active: 7.94 µM | –
O=C(NCc1ccc2c(c1)OCO2)c1sccc1Br | – | inactive: -7.89%
CCOC(=O)c1ccccc1NC(=O)CC(C)CC(=O)O (stereo not given) | inconclusive [inhibitor, single point] | –
Cc1c(C(=O)Nc2ccccc2[N+](=O)[O-])csc1-c1ccccc1 | inconclusive [inhibitor, single point] | –
COC(=O)c1ccc(CNC(=O)COC(=O)Cc2ccsc2)cc1 | – | inactive: 2.22%
Cc1ccc2cc3c(N)c4c(C)ccc(C)c4nc3nc2c1 | – | inactive: -2.83%
N#Cc1ccccc1NC(=O)CSc1nnc(-c2ccc(F)cc2)n1-c1ccccc1 | – | inactive: -4.29%
O=S(=O)(Nc1cccc2c1CCCC2)c1ccc(Cl)cc1 | inconclusive [inhibitor, single point] | –
COc1ccc(N2CCN(C(CNS(C)(=O)=O)c3ccco3)CC2)cc1 (stereo not given) | inconclusive [inhibitor, partial curve] | –
Cc1ccc(C(=O)N/N=C/c2nc3ccccc3n2C)cc1 | inconclusive [inhibitor, single point] | –
C=CCO/N=C/C1=C(O)C(C(=O)OC)C(C)(C)CC1=O (stereo not given) | – | inactive: 1.49%
COc1cccc2[nH]c3c(N4CCCC(C)C4)ncnc3c12 (stereo not given) | inconclusive [inhibitor, single point] | –
Cc1cnc(CNc2nc(-c3ccc(N(C)C)cc3)nc3ccccc23)cn1 | – | inactive: -14.4%
CC(Sc1nc(C(C)(C)C)cc(-c2ccccc2)c1C#N)C(=O)Nc1ccccc1 (stereo not given) | active: 25.1 µM | –
Cc1c(N=C2C=C(Br)C(=O)C(Br)=C2)c(=O)n(-c2ccccc2)n1C | active: 10 µM | –
O=C(NCCc1ccccc1)N1c2ccccc2Sc2ccccc21 | inconclusive [inhibitor, single point] | –
O=C(NCc1ccc2[nH]c3c(c2c1)CCCC3)N1CCOCC1 | inconclusive [inhibitor, single point] | –
COc1ccc(NC(=O)CNC(=O)Cn2c(C)cc3ccccc3c2=O)c(OC)c1 | inconclusive [inhibitor, single point] | –
Cc1ccc(S(=O)(=O)N(CC(=O)N2CCc3ccccc3C2)c2cccc(Cl)c2)cc1 | active: 0.562 µM | –
CC[C@H](CC[C@@H](C)C1CC[C@H]2[C@@H]3CC=C4C[C@@H](O)CC[C@]4(C)[C@H]3CC[C@]12C)C(C)C (stereo not given in full) | – | inactive: 1.03%
COc1ccc(C2NCCc3c2[nH]c2ccccc32)cc1CSc1nc2ccccc2s1 (stereo not given) | inconclusive [inhibitor, single point] | –

Compound | Potency | activity, negative = inhibition
COC(=O)c1ccccc1NC(=O)CN(C)S(=O)(=O)c1cc(C)ccc1OC | inconclusive [inhibitor, single point] | –
Nn1c(SCc2nc3ccccn3c2Br)nnc1-c1cccnc1 | inconclusive [inhibitor, single point] | –
CCn1c(CSc2nc(C)cc(C)n2)nnc1SCC(=O)Nc1nc(-c2ccccc2)cs1 | – | inactive: 7.87%
COC(=O)/C=C/C(C)=C/C=C/C(C)=C/C=C/C=C(C)/C=C/C=C(C)/C=C/C(=O)O | inconclusive [inhibitor, single point] | –
O=C1C2C3C=CC(C4CC34)C2C(=O)N1Cc1ccccc1 (stereo not given) | inconclusive [inhibitor, single point] | –
COc1cc2c(cc1NCc1ccc3c(c1)OCO3)oc1ccccc12 | inconclusive [inhibitor, partial curve] | –
CSC1=NC(=O)/C(=C\c2cccc3ccccc23)S1 | inconclusive [inhibitor, single point] | –
CN(C)CCCO[C@H]1[C@@H]2OC(C)(C)O[C@@H]2O[C@@H]1[C@H](O)CO | – | inactive: 9.89% [at 20.9 µM]
CCn1c(N)c(C(=O)Nc2ccccc2C(=O)OC)sc1=S | active: 28.2 µM | –
Cc1cc(SC#N)cc(C)c1NC(=O)CCl | inconclusive [inhibitor, full curve] | –
CCn1c(=O)n(CC)c2cc(S(N)(=O)=O)ccc21 | inconclusive [inhibitor, partial curve] | –
CC1(C)C2CCC(C2)C1(C)NC(=O)CNC1CCCCC1 (stereo not given) | – | inactive: -3.87%
O=C(Nc1nnc(CCN2CCCCC2)s1)c1ccccc1 | inconclusive [inhibitor, single point] | –
Cc1cc(C(=O)COc2ccc3ccc(=O)oc3c2)c(C)n1Cc1cccs1 | inconclusive [inhibitor, partial curve] | –
O=[N+]([O-])c1ccc(F)cc1Oc1nc(-c2cccnc2)nc2ccccc12 | inconclusive [inhibitor, single point] | –
Cc1cc(C)c(C)c(C(=O)CSc2nnc(C)c(=O)[nH]2)c1C | – | inactive: 16%
C=CCN(c1ccccc1)S(=O)(=O)c1ccc(Cl)c(C(=O)OCC(=O)c2[nH]c(C)c(C(C)=O)c2C)c1 | – | inactive: 1.38%
CCCc1cc(NCCCN2CCOCC2)n2c(nc3ccccc32)c1C#N | inconclusive [inhibitor, partial curve] | –
CC(/C=C1\SC(=S)N(NC(=O)c2ccccc2C)C1=O)=C\c1ccccc1 | inconclusive [inhibitor, partial curve, poor fit] | –
O=C(NCc1ccccn1)c1nn(-c2ccccc2)c(=O)c2ccccc12 | inconclusive [inhibitor, single point] | –
CN(Cc1ccccc1)C1CC(=O)N(c2ccc(C(=O)O)cc2)C1=O (stereo not given) | active: 28.2 µM | –
COC(=O)c1sc(S(=O)(=O)NCc2ccccc2)c(C(=O)OC)c1C | inconclusive [inhibitor, partial curve] | –
Cc1cc(NC(=O)c2noc3c2CCc2ccccc2-3)n(-c2ccccc2)n1 | inconclusive [inhibitor, single point] | –
C/C(CCC(C)C)=N\Nc1cc(C)c2ccccc2n1 | inconclusive [inhibitor, partial curve] | –

Compound | Potency | activity, negative = inhibition
COc1ccc(C2/C(=C(/O)c3ccccc3)C(=O)C(=O)N2CCN2CCOCC2)c(OC)c1 (stereo not given) | inconclusive [inhibitor, single point] | –
O=C(O)COc1ccccc1/C=N/Nc1ccc(S(=O)(=O)N2CCOCC2)cc1[N+](=O)[O-] | inconclusive [inhibitor, single point] | –
COc1ccc(Cl)cc1NC(=S)N1CCN(c2ncccn2)CC1 | inconclusive [inhibitor, single point] | –
CCCCCn1c(SCC(=O)OCC)nc2cc(C(=O)N3CCC(C(N)=O)CC3)ccc2c1=O | inconclusive [inhibitor, partial curve] | –
COC(=O)C1CCN(S(=O)(=O)Cc2ccccc2)CC1 | inconclusive [inhibitor, single point] | –
CC(C)NC(=O)NC(=O)COC(=O)CCCSc1nc2ccccc2s1 | inconclusive [inhibitor, single point] | –
COc1ccc(C2C(C(=O)N3CCCC3)CC(=O)N2c2ccc(OC)cc2)cc1 (stereo not given) | inconclusive [inhibitor, partial curve] | –
CCC1(c2ccc(F)cc2)NC(=O)N(CC(=O)Nc2ccc(-c3nc4ccc(C)cc4s3)cc2)C1=O (stereo not given) | inconclusive [inhibitor, partial curve] | –
N#CC(C#N)=C(Nc1ccc(F)cc1)SCc1cccc(Br)c1 | – | inactive: 0.796%
CCC(=O)OCC(=O)Nc1ccc2c(c1)OCO2 | – | inactive: -10.1%
Cc1cnc(CNc2ncncc2-c2ccc(C(=O)N(C)C)cc2)cn1 | – | inactive: -5.05%
O=C(O)c1ccccc1C(=O)NNc1ccc(F)cc1 | active: 7.94 µM | –
Cc1ccc(CSc2nnc(SCC(=O)N/N=C/C=C/c3ccco3)s2)cc1 | inconclusive [inhibitor, single point] | –
COc1ccc(C2CC(c3cc(Br)ccc3F)n3nnnc3N2)cc1 (stereo not given) | inconclusive [inhibitor, single point] | –
COc1ccc(C(=O)N/C(=C\c2cn(C)c3ccccc23)C(=O)OCCN(C)C)cc1 | – | inactive: 2.88%
CS(=O)(=O)N1CCN(c2ncnc3c2cnn3-c2ccccc2)CC1 | inconclusive [inhibitor, single point] | –
COc1ccc(N2CCN(Cc3nc4c(c(=O)[nH]c(=O)n4C)n3CCCc3ccccc3)CC2)cc1 | inconclusive [inhibitor, partial curve] | –
COc1ccc(NS(=O)(=O)c2ccc(N3CCCC3)c(NC(=S)Nc3cccc(S(=O)(=O)N(C)C)c3)c2)cc1 | active: 3.16 µM | –
CC(c1ccco1)N(C(=O)c1ccc(S(=O)(=O)N2CCCCC2)cc1)c1ccccn1 (stereo not given) | active: 12.6 µM | –
COC(=O)c1oc2nc(C)cc(C)c2c1N | inconclusive [inhibitor, partial curve] | –
CCOC(=O)CNC(=S)N(Cc1cccs1)C1CCCCC1 | inconclusive [inhibitor, single point] | –
COC(Cn1cc(C)c(=O)[nH]c1=O)OC | – | inactive: 8.38%
